{"source": "paper PMC12136788", "binders": {"B1": {"name": "156510679_156513964_2510_CDS_ENSG00000183856_ENST00000361170|human|control|control (ssRNA)", "RNA": "GGGAGUUCUACAGUCCGACGAUCCACACUGAGAGGAGGGUGGGGUGCAUGCACUAAUAUCCUGUAGUCAUCUUGGGCUUUCCUGGCUCGGAAAAAUGCCUGGAUCUUCACAAUGGAGUUAACAUUCUUCUGGAAGUAGUGCAGCAACAGAGGAUUGAGCAUCA"}, "B2": {"name": "chr18:25532265:25532266:-_ENSG00000170558_ENST00000399380|hu_mus|FALSE|FALSE (ssRNA)", "RNA": "GGGAGUUCUACAGUCCGACGAUCGGAGUUGAGGGAGCUCAAGGAGCCAGCCGUGGAGCCGCUGCCCUCGUAGUCAAAGACUAAGAGGGAGUCAUACGGUGGCGCCGUGGGGUCGUUGUCAGCAGCUUUAAGGCCCUCAUUAAUCAACAGAGGAUUGAGCAUCA"}, "B3": {"name": "chr7:148083511:148083512:+_ENSMUSG00000025487_ENSMUST00000026560|mus_hu|motif|central (ssRNA)", "RNA": "GGGAGUUCUACAGUCCGACGAUCAAAUCCAACACUCGGGGCUGCACCCAGGUCAUGUGGACUCGUUUGUCCACCUCGUCGGUACUGCCUUUCACCAGCCCCACCGAAAGGGCCUUCAUCACCAGAAGCUCCACCUCAUUCACUCAACAGAGGAUUGAGCAUCA"}, "B4": {"name": "chr2:47387936:47387937:-_ENSG00000143933_ENST00000272298|hu_hu|FALSE|FALSE (ssRNA)", "RNA": "GGGAGUUCUACAGUCCGACGAUCUACAAGAAAUUUAACACAUUCUGUACAAGGUCUUCACUUUGCUGUCAUCAUUUGUACAAACUCUUCAUAGUUUACUUGACCAUCACCAUCAAUAUCUGCUUCCCUGAUCAUUUCAUCAACCAACAGAGGAUUGAGCAUCA"}, "B5": {"name": "53569886_53570006_2966_CDS_ENSG00000023287_ENST00000025008|human|control|control (ssRNA)", "RNA": "GGGAGUUCUACAGUCCGACGAUCUGAGAAGUCACACUGUUCUUUUUGUACAAAUGUUCUAAAGUGGCAAAGGUCUUCCUUAAUGGUUUGUAUACUGAAGUGAGAGUCUUGGGCAACAACUCUACAUCUUUCCAACUGGACAUUCAACAGAGGAUUGAGCAUCA"}, "B6": {"name": "chr5:4083222:4083223:-_ENSMUSG00000001467_ENSMUST00000001507|perfect_dup|FALSE|FALSE (ssRNA)", "RNA": "GGGAGUUCUACAGUCCGACGAUCGGUGUGAAUCAUAGUUGUAUAAUUCACAGUGGGAAAGUAUCCAUCAAUGAGAUCAAAUUCAUAUAAACGAAGCAUAGUGGACCAAAUUGUCUUAAUUUGAACAUAGGCAAAAUUUUCCCCCAACAGAGGAUUGAGCAUCA"}, "B7": {"name": "chr18:33688888:33688889:-_ENSG00000141424_ENST00000269187|hu_mus|FALSE|FALSE (ssRNA)", "RNA": "GGGAGUUCUACAGUCCGACGAUCAAGUGACACAUUGCUUGGAUUAACAUAUUUACAUUUCUCUAUCAUACAGAUGUACAAGCAGAUGAAGUGUAUCAGAGUGUUCACUUGUUUCACAGGAACAUAACAAUUUGACAGAUGUCCCAACAGAGGAUUGAGCAUCA"}, "B8": {"name": "chr4:73765705:73765706:+_ENSMUSG00000049122_ENSMUST00000084474|mus_mus|FALSE|FALSE (ssRNA)", "RNA": "GGGAGUUCUACAGUCCGACGAUCGUACCUUGUGAGCUCUUCUUUAAUCUUCAAGGGUUCAUGUGGGUAGAAUUUCACUCUAAAGCACAUGGUGUAUGGUGGAUGAGAUUUCAUUUGCUUGAAGAUGGACUUGUUAGGCUCAAGCAACAGAGGAUUGAGCAUCA"}, "B9": {"name": "chr11:77336104:77336105:-_ENSG00000074201_ENST00000525064|hu_mus|hu_hu_hu_mus_False|78_108 (ssRNA)", "RNA": "GGGAGUUCUACAGUCCGACGAUCCUCGCACAUUGCAGUGAACAUCGCCUCCAAUGCUGAUUUAUCACUGGGCACAAAUCGAAAUUCAGAAAUGGGUUCAACAUCAUCAUUGUCUUCCUCAUCUUCAUCAGAGAGAGGUUCUUUCAACAGAGGAUUGAGCAUCA"}, "B10": {"name": "39935774_39937205_266_3pUTR_ENSG00000183337_ENST00000397354|human|control|control (ssRNA)", "RNA": "GGGAGUUCUACAGUCCGACGAUCCAAGGAUUUUCCUGUCUUCGCUCGCCCCACACAUGCGGACCCUCUCGCUGUUCAUCCAGCUGUGAACGUUCCCAUACAGGGGGGUUGCUGAGAGCAUGUCGUCUUCUGGGAUGGCAGCUUCAACAGAGGAUUGAGCAUCA"}, "B11": {"name": "chr2:217001844:217001845:+_ENSG00000079246_ENST00000392132|hu_hu|hu_hu_hu_mus_False|38_108 (ssRNA)", "RNA": "GGGAGUUCUACAGUCCGACGAUCACCGACUUGAGGAUUAGAUCUUUUGUCAUAAGCAUAUCGGACGAUGGCGACCAUGUUUAACUCAUCCAAAGCAUGAAUCAGGGAGGAAAGGGCAACAGCUGCCGCCUCAUCAUCCUUUGCCAACAGAGGAUUGAGCAUCA"}, "B12": {"name": "18507128_18507248_137_5pUTR_ENSG00000243156_ENST00000441493|human|control|control (ssRNA)", "RNA": "GGGAGUUCUACAGUCCGACGAUCGUGCCGCCGUGGCUGCUCGCACAACCCCUGCAGCUGCGAUCCCGCCCAGUUAGCCUCGGGGGCUGCACAGCCCAGCCCCCUCGCCCAGGGCCCAGGGGUUCUCAGGCCGCGCGGCGAGGACAACAGAGGAUUGAGCAUCA"}, "B13": {"name": "chrX:140365796:140365797:-_ENSMUSG00000031285_ENSMUST00000033642|mus_mus|mus_mus_mus_hu_False|18_58 (ssRNA)", "RNA": "GGGAGUUCUACAGUCCGACGAUCCUUCUCAUUACUCAGUGCCUGCAAGGUUCUGGUUCGGUAGAAGCUACAGUGGGCACUAUGAGUGGGGCUAGGCAACCCAUUCAUCCGGGAGCCUCUCAUAUUUCUGGAUGUCUUAUCUCUCAACAGAGGAUUGAGCAUCA"}, "B14": {"name": "chr7:19736620:19736621:-_ENSG00000105849_ENST00000222567|hu_hu|motif|central (ssRNA)", "RNA": "GGGAGUUCUACAGUCCGACGAUCCAUUGUCUAGCACAUCUACUUGUAGACAAUUGUGAACAUCUGCCACUCUGCCAAUUCGGUAUCCCAUCAUUGUAAGUUCAGAUCAACAUAUACCACUAGCAGAAUUUAUUCAUUACCAAACAACAGAGGAUUGAGCAUCA"}, "B15": {"name": "chr1:63223742:63223743:+_ENSMUSG00000025967_ENSMUST00000135877|mus_hu|FALSE|FALSE (ssRNA)", "RNA": "GGGAGUUCUACAGUCCGACGAUCUCUCCGAAACCCAUGGUGUCGGCUGUAUCCGAGAGCUGGGGAGCAGCAGAAAGAGAGCGCGCAAAUUGUGGGCGCCCCACGCUCCACGGCUCCCGAAGAUGACGGGAACCAGCCCUAGAACAACAGAGGAUUGAGCAUCA"}, "B16": {"name": "46067823_46067943_205_3pUTR_ENSG00000130638_ENST00000252934|human|control|control (ssRNA)", "RNA": "GGGAGUUCUACAGUCCGACGAUCCUUGCCGCUCACAGCUGGGUCGAGCCUGACGAGGAGGAGGAAGGCGAGGAGGACGAAGGGGGAGGAUGACGAGGAGGGAGGAGUAGGAUGGCGAGGAGGAAGGGGGAGGCCUCGCCCUACCAACAGAGGAUUGAGCAUCA"}, "B17": {"name": "chr17:64801638:64801639:+_ENSG00000154229_ENST00000413366|hu_mus|hu_hu_hu_mus_False|8_98 (ssRNA)", "RNA": "GGGAGUUCUACAGUCCGACGAUCUAUAUAUAUAUAUAUAUACACACACAUAUAUAGUAAAACCCUAGUUAAACGUGUAAAGUAGCCAUUCAUUUUUAAAAUUACAUCUACAUUAAAAAAUUAAUAUAUCUGAUACAGUGCCAGCAACAGAGGAUUGAGCAUCA"}, "B18": {"name": "54708344_54714423_936_CDS_ENSG00000047249_ENST00000359530|human|control|control (ssRNA)", "RNA": "GGGAGUUCUACAGUCCGACGAUCAAUCAUUUGAUACUGGAGCUGAAAGCCACACUUGUUACUCAACACUCCCAUUAUGCAAUUUACCCCAUCUGCUUCCACCCAAGCAAAGCGGUACUCAUUGACCCGGAGCAUCAGCUGCAACAACAGAGGAUUGAGCAUCA"}, "B19": {"name": "chr15:38448799:38448800:-_ENSMUSG00000037458_ENSMUST00000152833|mus_mus|FALSE|FALSE (ssRNA)", "RNA": "GGGAGUUCUACAGUCCGACGAUCAGCAGAAAUACCCAAGGCGGCCUGGGCCAUAGGCUGCGGGGACGACGUGGGGGAAACGCGCGGCACCGACACCAGCUGAGCAGCAGUGGCGGCGGCAGCCGAACUGGAGAAAUGGAGCGGCAACAGAGGAUUGAGCAUCA"}, "B20": {"name": "chr1:46159212:46159213:+_ENSG00000159596_ENST00000372025|hu_mus|hu_hu_hu_mus_True|28_38 (ssRNA)", "RNA": "GGGAGUUCUACAGUCCGACGAUCUCUGAUCCCUCCCAAGAAAGCUAGGAAACCGGCUCCAUAAGCCAUCUGAGUGAAAGCUAGGACGGGGAUAUAAGUUUUUGUCAUCAGCAUGACAAGUGGGGGAGCAGUAAAGGGGAUUAACAACAGAGGAUUGAGCAUCA"}, "B21": {"name": "chr3:145257603:145257604:+_ENSMUSG00000074182_ENSMUST00000098534|mus_mus|motif|central (ssRNA)", "RNA": "GGGAGUUCUACAGUCCGACGAUCAUCGAUGUAAGGCUUUAGAAUUUCAUUAAUAGUUUUAUCAUCUGGUACUCUUUUUUCGGUGUACUCUGCUUGACUCUGAGGAAACUGGAGCUUGACAUGCCAACAAAACUGCUGCUUCCUCAACAGAGGAUUGAGCAUCA"}, "B22": {"name": "chr4:115894766:115894767:+_ENSMUSG00000028698_ENSMUST00000030464|mus_hu|mus_mus_mus_hu_True|28_78 (ssRNA)", "RNA": "GGGAGUUCUACAGUCCGACGAUCUUCCACACGGAAAUGUACUUCGGGUUUUCCAACGCCAGUACAAAGUCCGGCCAAACUACCCGAACAGGGUCCUCCCCCUCUCUUCUCUCCUCCACAACAAAAUGCCCCCGAACUUUCAAGCAACAGAGGAUUGAGCAUCA"}}, "note": "Some of the results follow.", "data": [{"molecular_target": "T1, UNK ZnF1-3 (human, UniProt Q9C0B0 31-174)", "T1 sequence": "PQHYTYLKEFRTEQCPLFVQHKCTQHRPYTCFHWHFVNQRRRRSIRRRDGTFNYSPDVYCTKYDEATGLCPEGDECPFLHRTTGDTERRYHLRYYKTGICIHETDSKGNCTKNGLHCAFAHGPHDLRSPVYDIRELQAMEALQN", "experiment": "nsRBNS (natural sequence RNA bind-n-seq); RBNS binding buffer (assumed for nsRBNS): 25 mM Tris pH 7.5, 150 mM KCl, 3 mM MgCl2, 0.01% Triton X-100, 500 ug/ml BSA, 20 U/ml SUPERase-In, 4 C; UNK is unkempt and MSI1 is Musashi-1; names of the RNAs are library labels; protein concentration not given here; high values mean tight binding", "units": {"binding signal": "enrichment R"}, "values": [{"binder": "B1", "binding signal": 1.2}, {"binder": "B2", "binding signal": 1.27}, {"binder": "B3", "binding signal": 0.559}, {"binder": "B4", "binding signal": 0.957}, {"binder": "B5", "binding signal": 1.05}, {"binder": "B6", "binding signal": 0.915}, {"binder": "B7", "binding signal": 0.705}, {"binder": "B8", "binding signal": 0.763}, {"binder": "B9", "binding signal": 0.839}, {"binder": "B10", "binding signal": 0.552}, {"binder": "B11", "binding signal": 1.49}, {"binder": "B12", "binding signal": 0.829}, {"binder": "B13", "binding signal": 0.628}, {"binder": "B14", "binding signal": 1.22}, {"binder": "B15", "binding signal": 0.804}, {"binder": "B16", "binding signal": 1.98}, {"binder": "B17", "binding signal": 2.7}, {"binder": "B18", "binding signal": 0.936}, {"binder": "B19", "binding signal": 1.78}, {"binder": "B20", "binding signal": 1.2}, {"binder": "B21", "binding signal": 0.776}, {"binder": "B22", "binding signal": 1.04}]}]}
